Experimental data as given in PubChem BioAssay AID488969 (Vanderbilt High Throughput Screening Facility, 2010).
In all, about 110,000 compounds were measured (“z-score”: median about -0.1, highest 2% from about 2 on). This is one part of the list. Activity calls are given as the source filed them.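 Rule for the calls: active = z-score in the third read window above 3 or below -3; inactive = the rest.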

Target: Metabotropic glutamate receptor 8 (Rattus norvegicus) (UniProt P70579)
Test: rat mGluR8 modulators via GIRK flux, primary screen, cell-based, thallium flux, HTS (AID 488969)
Conditions: HEK293 rat mGluR8, GIRK (G protein-gated inwardly rectifying potassium channel) thallium flux, FluoZin2; at 10 µM; stronger effect = higher value; submaximal glutamate (EC20) added with thallium

Sequence of UniProt P70579 (P70579 whole entry, looked up): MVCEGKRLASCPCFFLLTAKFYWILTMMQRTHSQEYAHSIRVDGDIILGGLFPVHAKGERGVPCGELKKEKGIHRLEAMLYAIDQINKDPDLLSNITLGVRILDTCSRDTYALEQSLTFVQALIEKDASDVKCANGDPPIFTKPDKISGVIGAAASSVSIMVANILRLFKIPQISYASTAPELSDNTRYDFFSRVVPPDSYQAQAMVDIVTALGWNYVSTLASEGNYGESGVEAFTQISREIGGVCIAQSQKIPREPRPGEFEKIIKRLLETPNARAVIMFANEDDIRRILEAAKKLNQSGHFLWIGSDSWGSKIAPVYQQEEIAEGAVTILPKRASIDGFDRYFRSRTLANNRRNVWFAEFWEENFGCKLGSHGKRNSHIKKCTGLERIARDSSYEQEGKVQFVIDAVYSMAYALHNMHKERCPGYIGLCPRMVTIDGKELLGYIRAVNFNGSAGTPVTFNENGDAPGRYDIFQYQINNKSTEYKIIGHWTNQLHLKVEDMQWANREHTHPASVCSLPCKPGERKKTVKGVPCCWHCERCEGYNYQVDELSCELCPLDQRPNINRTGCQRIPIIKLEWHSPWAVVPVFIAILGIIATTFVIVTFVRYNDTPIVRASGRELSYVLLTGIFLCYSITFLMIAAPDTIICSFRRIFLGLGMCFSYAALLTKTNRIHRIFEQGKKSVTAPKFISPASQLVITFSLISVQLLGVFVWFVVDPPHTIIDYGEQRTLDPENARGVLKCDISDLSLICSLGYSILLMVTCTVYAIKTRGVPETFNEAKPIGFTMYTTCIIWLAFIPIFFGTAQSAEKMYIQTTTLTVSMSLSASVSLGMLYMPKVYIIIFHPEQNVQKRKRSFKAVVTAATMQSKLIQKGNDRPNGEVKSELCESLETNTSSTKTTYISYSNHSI

Row | Structure (SMILES) | z-score
1 | CC(=O)c1ccc(NC(=O)c2cc(Cl)sc2Cl)cc1 | -0.102
2 | CC(C)CNC(=O)C1CCN(Cc2ccc(OCc3ccccc3)cc2)CC1 | 0.443
3 | CC(C)=CCCC(C)CN1CCC(O)CC1 (stereo not drawn) | -0.325
4 | CC1(NC(=O)N2CCOCC2)CCS(=O)(=O)C1 (stereo not drawn) | -0.187
5 | Cc1nc2ccc(NC(=O)c3nn(C(C)C)c(=O)c4ccccc34)cc2s1 | -0.168
6 | COc1ccccc1C1C(C(=O)c2cc3ccccc3o2)=C(O)C(=O)N1CCN(C)C (stereo not drawn) | -0.748
7 | CCOC(=O)C(NC(=O)c1ccccc1)(Nc1cc(C)on1)C(F)(F)F (stereo not drawn) | -0.179
8 | O=c1oc(Nc2ccc(F)cc2)nc2ccccc12 | -0.728
9 | CCN(C(C)=O)c1nnc(CSc2nc3ccccc3s2)s1 | -0.505
10 | CC(OC(=O)c1cc2sccc2n1C)C(=O)NCc1ccc(F)cc1 (stereo not drawn) | -0.188
11 | CCc1c(C)nc2c(C#N)c[nH]n2c1=O | -2.49
12 | Nc1scc(-c2ccncc2)c1Cl | -0.259
13 | CC(C)(C)c1cc(NC(=O)CSc2nnc(NCc3ccccc3)s2)n(-c2ccccc2)n1 | -0.496
14 | Cc1ccc2nc(-c3cccnc3)c(NC3CCCCC3)n2c1 | 0.317
15 | O=C(NCCC1=CCCCC1)C(c1ccccc1)c1ccccc1 | -0.184
16 | O=C(c1ccc(COc2ccc3ccccc3c2)o1)N1N=C(C(F)F)CC1(O)C(F)F (stereo not drawn) | -0.0748
17 | Cc1ccc(NC(=S)NCCN2CCOCC2)cc1C | -0.114
18 | C=CCn1c(SCC(=O)Nc2cccc(C(=O)OC)c2)nnc1C(C)NC(=O)c1cccs1 (stereo not drawn) | -1.55
19 | Cc1cc(NC(=O)c2cncc(Br)c2)n(-c2ccccn2)n1 | -0.0687
20 | CCOC(=O)CSc1nc2ccccc2c(=O)n1CC1CCC(C(=O)NCc2ccco2)CC1 (stereo not drawn) | -0.605
21 | N#Cc1cccc(NC(=O)CN2NS(=O)(=O)c3ccccc3C2=O)c1 | -0.0578
22 | CCN1C(=O)C(F)(CC)C(=O)c2ccccc21 (stereo not drawn) | -0.156
23 | COc1ccc(NC(=S)N2CCC(C(O)(c3ccccc3)c3ccccc3)CC2)cc1 | 0.263
24 | COc1ccc(NC(=O)CCSc2cc(C)c3ccccc3n2)cc1 | -2
25 | O=C(COc1cnc2ccccc2n1)NCCC1=CCCCC1 | 0.0998

Row | Structure (SMILES) | z-score
26 | Cn1c(C(=O)N2CCN(C(=O)c3ccco3)CC2)cc2c(=O)n(C)c3ccccc3c21 | -0.0609
27 | Cc1ccccc1CS(=O)(=O)CCC(=O)N1CCN(c2ccc(N3CCOCC3)nn2)CC1 | 0.315
28 | O=C(CSc1n[nH]c(=O)[nH]c1=O)c1ccccc1 | 0.109
29 | COc1ccccc1NC(C#N)c1ccccc1OCc1ccccc1 (stereo not drawn) | -0.0312
30 | Cc1cc2n(n1)C(c1ccc3c(c1)OCO3)Nc1ccccc1-2 (stereo not drawn) | -0.00219
31 | COc1ccc(-c2occ(C(=O)O)c2C(=O)O)cc1 | 0.0956
32 | O=S(=O)(c1ccccc1)N1CCN(Cc2ccccc2C(F)(F)F)CC1 | 0.0237
33 | Cc1cc(C(=O)NC2CCCc3ccccc32)c(C)o1 (stereo not drawn) | -0.62
34 | O=C(CC(=O)NCc1cccnc1)NCc1cccnc1 | 0.454
35 | CC(=O)Nc1c(C(=O)O)oc2ccc(Cl)cc12 | 1.18
36 | CCC(CO)n1c(SCc2cc([N+](=O)[O-])cc3c2OCOC3)nc2ccccc2c1=O (stereo not drawn) | -0.473
37 | O=C(NCCNC(=O)c1cc(OCC(F)(F)F)ccc1OCC(F)(F)F)Nc1cccc(C(F)(F)F)c1 | -0.607
38 | O=C(CSc1nc2ccccc2c(=O)[nH]1)N1CCN(S(=O)(=O)c2ccccc2)CC1 | -0.0737
39 | COc1ccc2nc(N3C(=O)/C(=C/c4ccc(Cl)cc4)NC3=S)sc2c1 | active: 6.84
40 | COc1cccc(-c2cc3nc4c(c(N5CCC6(CC5)OCCO6)n3n2)CCCC4)c1 | -0.356
41 | O=C(CCCN1C(=O)c2ccccc2C1=O)NCCC1=CCCCC1 | -0.0374
42 | COc1cc(NC(=O)c2cc3ccccc3o2)c(OC)cc1Cl | 0.325
43 | CCn1cc(C(=O)OCC(=O)Nc2cc(S(=O)(=O)N(C)C)ccc2C)c(=O)c2ccc(C)nc21 | -0.956
44 | CCCN1C(=O)c2cc(C(=O)NC3CCCCCC3)ccc2C1O (stereo not drawn) | 0.026
45 | CCOc1ccc(C2NC(=O)c3n[nH]c(C)c32)cc1 (stereo not drawn) | 0.931
46 | CC(C)(C)C1CCc2c(sc3nc(SCC(N)=O)nc(N)c23)C1 (stereo not drawn) | -0.548
47 | COc1ccc(CCNC(=O)CSC2=Nc3ccccc3C3=NC(C(C)C)C(=O)N23)cc1OC (stereo not drawn) | 0.857
48 | Nc1ccc2c(c1)C(=O)N(CCCCCC(=O)O)C2 | 0.116
49 | O=C1c2ccccc2-c2c1cccc2C(=O)N1CCCCC1 | -0.115
50 | c1ccc(NCCCNc2ccccc2)cc1 | -1.37

Row | Structure (SMILES) | z-score
51 | CCOC(=O)N1CCN(Cc2ccc(F)cc2F)CC1 | -0.33
52 | CSc1nc(N)c(C#N)c(-c2ccc(Cl)cc2)c1C#N | -0.591
53 | c1csc(CSc2nnc3sc4ccccc4n23)c1 | -2.2
54 | COCCNC(=O)c1onc(CSc2ccccc2)c1C(=O)O | 0.0648
55 | CC(=O)Nc1cc(OC(=O)c2ccco2)cc(OC(=O)c2ccco2)c1 | -0.29
56 | CC(=O)NC1CC2CCCC(C1)N2CC(=O)NCc1ccc(F)cc1 (stereo not drawn) | -0.661
57 | N#CC1=C(N)Oc2c(ccc3ccccc23)C1c1ccsc1 (stereo not drawn) | -0.0758
58 | O=c1c2ccccc2nnn1CSc1nnnn1-c1ccccc1 | -0.0586
59 | C/C(=N\NS(=O)(=O)c1ccc(C)cc1)c1cccs1 | 0.236
60 | O=C(COC(=O)c1ccc(Br)o1)NCCCc1ccccc1 | 0.403
61 | Cc1ccc(N(C)C(=O)N2CCN(S(=O)(=O)c3ccc4ccccc4c3)CC2)cc1 | 0.00301
62 | CCC(c1nc2ccccc2c(=O)n1CCN1CCOCC1)N1C(=O)c2ccccc2C1=O (stereo not drawn) | -0.114
63 | NC(=O)c1ccc(-n2nnnc2Oc2ccccc2C(=O)N2CCOCC2)cc1 | 0.608
64 | CCCCS/C(N)=N/N=C/c1cc(C)ccc1O | -0.074
65 | COC(=O)c1c(C#N)c(N)nc2c1CCCC2 | 0.28
66 | CCOc1ccc(S(=O)(=O)NCCSCc2ccco2)cc1 | 0.163
67 | CN(C)CCCNC(=O)/C(=C\c1ccc(-c2ccc(Br)cc2)o1)NC(=O)c1ccccc1 | -0.228
68 | Cc1nc2ccccc2n1CC(=O)OCC(=O)NCCc1ccccc1 | -0.808
69 | COc1ccc(OCCCC(=O)NCC(C)C)cc1 | 0.365
70 | C=CCSc1nnc2nc3[nH]c4c(C)cccc4c3nn12 | -0.341
71 | O=C(CCn1c(=O)oc2ccccc21)N1CCCCCC1 | 1.2
72 | CC(=O)N1CCN(c2nnnn2-c2ccccc2)CC1 | 0.0604
73 | COc1cc(C)c(-c2[nH]ncc2-c2csc(C)n2)c(O)c1 | 0.00339
